Laboratory results as given in PubChem BioAssay (NCI).
Where “and” joins values, the source holds several entries; their conditions need not be identical. Equal values may be shown once.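 Cells were grown in 96-well plates and exposed to each compound for 48 hours at five concentrations; endpoints were interpolated linearly between bracketing concentrations, or set to the highest concentration if not reached. GI50 is the concentration that inhibits growth by half. At the TGI there is no net growth.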 Peptide text beside a SMILES is read from it. * marks the point of attachment. Cbz = O=C(OCc1ccccc1)*; Boc = CC(C)(C)OC(=O)*; OBn = c1ccc(CO*)cc1

Test system: NCI-H322M lung
Test: NCI tumour cell line growth inhibition, 48 h

SMILES | TGI | GI50
COc1ccc(C=O)c(N(C)C(=O)C(C)(C)C)c1 | > 100 µM | –
Cc1c(O)c(OC2OC(CO)C(O)C(O)C2O)cc2c1CC[C@@H]1C2(C)C(=O)C[C@]2(C)[C@@H]([C@@](C)(O)C(O)CCC(C)(C)O)[C@H](O)C[C@@]12C (stereo partly specified) | > 100 µM | –
NC(=NCc1ccccc1)N/N=C\c1ccnc2ccccc12 | 35.7 µM | –
COc1ccc(-c2c(C(=O)Nc3ccccc3)c(-c3ccccc3)n(C3OC(CO)C(O)C(O)C3O)c(=S)c2C#N)cc1 (stereo unspecified) | > 100 µM | –
CCCN=C1S/C(=C/c2ccc(OC)c(OC)c2)C(=O)N1c1ccccc1 | > 100 µM | –
COC1C2c3ccccc3C(C#N)(Cc3ccc4c(c32)OCO4)N1C(=O)c1ccccc1 (stereo unspecified) | > 100 µM | –
CN(C)CC1CCCC(CN(C)C)C1=O (stereo unspecified) | 39 µM and > 78.7 µM | 23.9 µM and > 48 µM
CSc1ccc(C=C2N=C(c3ccccc3)N(c3cc(C(=O)c4ccccc4)ccc3N3C(=O)/C(=C/c4ccc(SC)cc4)N=C3c3ccccc3)C2=O)cc1 | > 100 µM | –
CC1(C)CC[C@]2(C(=O)O)CCC3(C)C(=CCC4[C@@]5(C)CC[C@H](OC6OCC(O)C(O)C6OC6OC(CO)C(O)C(O)C6O)C(C)(C)C5CC[C@]43C)C2C1 (stereo partly specified) | 4.08 µM | –
CCOC(=O)c1cc(NC(=O)c2ccccc2)c(=O)n2c(cc3c(Cl)cccc32)c1O | > 100 µM | –
COc1ccc(C(c2ccccc2)N2C(=O)CCC2C(=O)O)cc1OC (stereo unspecified) | > 100 µM | –
O=C1c2ccccc2-c2ccc(N(Cc3ccc(Br)cc3)Cc3ccc(Br)cc3)cc21 | > 100 µM | –
CCOC(=O)c1c(C)n(-c2ccc(C)cc2)c2c1cc(O)c1[nH]c3c(c12)CCCC3 | 81.2 µM | –
COC(=O)C1CCCCCCCCCCC12SCCCS2 (stereo unspecified) | 46.8 µM | –
COC(=O)C(CCCCNC(=O)OCc1ccccc1)NC(=O)C(CCC(=O)OCc1ccccc1)NC(=O)OC(C)(C)C (stereo unspecified) (Boc-Glu(OBn)-Lys(Cbz)-OMe; configuration not given here) | > 100 µM | –
COc1cc2c(cc1OCCCN1CCN(CCCOc3cc4c(cc3OC)C(=O)C3CCC[C@H]3C=N4)CC1)N=C[C@@H]1CCCC1C2=O (stereo partly specified) | > 100 µM | 26.8 µM
NC(N)=NCCCS(=O)(=O)Nc1ccc(Nc2c3ccccc3nc3cc([N+](=O)[O-])ccc23)cc1 | 32.7 µM | –
COc1ccc(C2=NN(c3ccc(S(N)(=O)=O)cc3)C(c3ccc(Cl)cc3)C2)c(O)c1 (stereo unspecified) | 38.8 µM | 5.23 µM
O=Cc1cc(O)ccc1Br | > 92.8 µM | –
CC(=O)NC1C(OCc2ccccc2)OC(CO)C(O)C1OCC(=O)NC(C)C(=O)NC(CCC(=O)Nc1ccc2c(c1)CN1C(=O)c3ccccc3C1=N2)C(N)=O (stereo unspecified) | > 100 µM | –
CCOC(=O)CC(=O)Nc1c(C(=O)OCC)sc2nc(SC)nc(Nc3ccc(OC)c(OC)c3)c12 | > 100 µM | –
O=[N+]([O-])c1ccc([I+]c2ccccc2)cc1 | 20.6 µM | –
C=C(CNCCc1ccc(O)cc1)[C@@H]1CC[C@]2(CO)CC[C@]3(C)[C@H](CC[C@@H]4[C@@]5(C)CCC(NCCO)C(C)(C)[C@@H]5CC[C@]43C)[C@@H]12 (stereo partly specified) | 3.64 µM | 2 µM
Nc1ncn([C@@H]2C=C(CO)C(O)C2O)c(=O)n1 (stereo partly specified) | > 100 µM | –

SMILES | TGI | GI50
CCN=C(N)CSS(=O)(=O)O | > 100 µM | –
COC(=O)C1(c2ccc(OC)cc2)NC(c2ccccc2)C2C(=O)N(c3ccc(OC)cc3)C(=O)C21 (stereo unspecified) | > 100 µM | –
COc1ccc(C(NCCNC(c2ccc(OC)c(OC)c2)c2cc3c(cc2O)OCO3)c2cc3c(cc2O)OCO3)cc1OC (stereo unspecified) | 22.3 µM | –
CC1(c2nc3ccccc3[nH]2)CCC(CO)C(C)(C)O1 (stereo unspecified) | > 100 µM | –
Cn1cc(-c2nonc2-c2cn(C)c3ccc(Br)cc23)c2ccccc21 | > 100 µM | 5.9 µM
O=S(=O)(Nc1ccc2ccc3cccc4ccc1c2c34)c1ccccc1 | > 100 µM | –
Cc1ccc2c(c1)C(=O)c1ccc(C)nc1C2=O | 95.4 µM | –
COC(=O)c1c(OC(C)=O)ccc2c1c1c(n2Cc2ccccc2)C(=O)c2ccccc2C1=O | 74.2 µM | –
O=C(O)C1CCCCN1CCc1c[nH]c2ccccc12 (stereo unspecified) | > 100 µM | –
CCCNc1c(Cl)cc(Cl)c2[nH]c3ccccc3c(=O)c12 | > 100 µM | –
COc1ccc(/C=N/Nc2nc3ccccc3c(=O)n2-c2ccccc2)cc1 | > 100 µM | –
Cn1cc(-c2ccc3c(c2)ncn3-c2ccc(CC(=O)Nc3cc(C(C)(C)C)on3)cc2)cn1 | 7.62 µM | 0.556 µM
CC1(C)OCC(C2OC(On3nnc4ccc(Cl)cc43)C3OC(C)(C)OC23)O1 (stereo unspecified) | > 100 µM | –
COc1ccc(-n2c(-c3ccccc3)cc(-c3cccs3)c2-c2cccs2)cc1 | > 100 µM | –
c1ccc(COc2ccc(Nc3ncnc4ccc(-c5ccco5)cc34)cc2)cc1 | > 25 µM | 11 µM
CCOC(=O)/C(=C/c1c(-c2ccccc2)[nH]c2ccccc12)C(=O)c1ccc(Cl)cc1 | > 100 µM | 98.4 µM
COc1cc(O)c2c(=O)cc(C3(OC(C)=O)C=CC(OC4OC(CO)C(O)C(O)C4O)C=C3)oc2c1 (stereo unspecified) | > 100 µM | –
S=c1nc(/C=C/c2ccc(Cl)c(Cl)c2)[nH][nH]1 | > 100 µM | –
NC(=S)NS(=O)(=O)c1ccc(F)cc1 | > 100 µM | –
O=C1c2cc([N+](=O)[O-])cnc2S(=O)(=O)N1c1ccc(Oc2ccccc2)cc1 | > 100 µM | –
C=C1C(=O)OC2C3C(=C)[C@@H](OC(C)=O)CC3C(C)=CC(OC(=O)C(C)(O)C(C)OC(C)=O)[C@@H]12 (stereo partly specified) | > 100 µM | –
CCC1c2[nH]c3ccccc3c2C[C@H]2C(=O)NC(Cc3ccccc3)C(=O)N12 (stereo partly specified) | > 100 µM | –
Nc1nccc(C#Cc2cncnc2Nc2ccc(OCc3cccc(F)c3)c(Cl)c2)n1 | 9.72 µM | 4.89 µM
CC(=O)NNc1nc(C)c(C(/C=C/c2ccc3c(c2)OCO3)=N/NC(=O)c2ccncc2)s1 | > 100 µM | –

SMILES | TGI | GI50
CC(C)=CCC/C(C)=C/CC/C(C)=C/C(O)c1ccccc1 (stereo unspecified) | 35 µM | –
Cc1oc2nc(N(C)C)n3c(C)nnc3c2c1C | > 100 µM | –
CCCCCNC(=O)C1C(=O)N(CCCCC)C(=O)/C1=N\N (stereo unspecified) | > 100 µM | –
CCOC(=O)C12CN(C34CC5CC(CC(C5)C3)C4)CC(C(=O)OCC)(C1=O)C(c1ccccc1)OC2c1ccccc1 (stereo unspecified) | > 100 µM | –
COC(=O)[C@@]12C3=NO[C@]1(C(=O)OC)C(O[Si](C)(C)C(C)(C)C)C1OC(C)(C)OC1[C@@H]2[C@@H](OCc1ccccc1)CC3 (stereo partly specified) | > 100 µM | –
N=C1SCCS1 | > 100 µM | –
Cn1cccc1C1CC(=O)N(CCC[Se]C#N)C1=O (stereo unspecified) | 5.34 µM | 1.77 µM
Nc1cccc2cc(S(=O)(=O)Nc3ccc(C(=O)O)cc3)ccc12 | > 100 µM | –
NC1=NC(=O)[C@H](CSCc2ccccc2)N1C(=O)OCc1ccccc1 | > 100 µM | –
CCN(CC)c1ccc(/C=C/C2=[N+](C)c3ccccc3C2(C)C)cc1 | 16.5 µM | 1.33 µM
CC(C)=CCc1c(O)c(CC=C(C)C)c2oc3c(c(=O)c2c1O)C(C=C(C)C)Oc1cc(O)ccc1-3 (stereo unspecified) | 25.7 µM | –
[N-]=[N+]=NC1=C(N=[N+]=[N-])c2cccc3cccc(c23)C1=O | > 100 µM | –
CNS(=O)(=O)NN(C)S(=O)(=O)c1ccc(C)cc1 | > 100 µM | –
CC(=O)NC1C(OCc2ccccc2)OC(CO)C(O)C1OC(C)C(=O)NC(C(=O)NC(CCC(=O)Nc1ccc2c(c1)CN1C(=O)c3ccccc3C1=N2)C(N)=O)C(C)C (stereo unspecified) | > 100 µM | –
N/C(=N\N=C=C1C(=O)Nc2ccc(F)cc21)NO | > 100 µM | –
Cc1cc2c(C)nn(Cc3ccc(Cl)cc3Cl)c2c(C#N)c1C | > 100 µM | –
CC(=O)[CH-]C(=O)c1ccccc1.CC(=O)[CH-]C(=O)c1ccccc1.[O-]Cc1cccs1.[O-]Cc1cccs1.[Ti+4] | > 100 µM | 59.5 µM
COc1ccc(OC)c(CC(=O)c2ccc(O)c(C(=O)NCCc3ccc(F)cc3)c2)c1 | 20.6 µM | –
COC12c3ccccc3-c3ccccc3C1[C@@H](C(=O)O)[C@H]2C(=O)O (stereo partly specified) | > 10 µM | –
c1ccc2c(-c3ccnc(-c4c[nH]c5ccccc45)n3)c[nH]c2c1 | 29.3 µM | –
CC(=O)OCC1OC(n2cnc3c(I)nc(I)nc32)C(OC(C)=O)C1OC(C)=O (stereo unspecified) | 30.7 µM | –
C/C(O)=C/c1nc2sc(C)c(C)c2c(=O)s1 | > 100 µM | –
CN(C)c1ccc(C=Nc2ccc(-c3nc4ccccc4o3)cc2)cc1 | > 100 µM | –
COC(=O)C1(C)CCc2c(ccc3ccccc23)C1=O (stereo unspecified) | > 100 µM | –

SMILES | TGI | GI50
O=C(N/N=C1\CCc2ccccc21)N/N=C1\CCc2ccccc21 | > 100 µM | –
C/C(=N\NC(=S)Nc1ccccc1)c1ccccn1 | 5.94 µM | 0.0799 µM
CC(C)c1cc(C(C)C)c(P2(=O)CC3C(Cl)(Cl)C3(C)C2)c(C(C)C)c1 (stereo unspecified) | 28.4 µM | –
N#CCCN(CCC#N)c1ccc(/C=C2\N=C(c3ccccc3)N(NC(=O)c3ccncc3)C2=O)cc1 | > 100 µM | –
CC(C)c1cccc(C(C)C)c1NC(=S)Nc1ccccc1 | > 100 µM | –
COc1ccc(C(=O)Nc2ccccc2C#N)cc1 | > 100 µM | –
COc1ccc([N+](=O)[O-])cc1[I+]c1cc([N+](=O)[O-])ccc1OC | > 100 µM | –
Cc1ccc(S(=O)(=O)OC(C=O)C(O)C(O)COC(c2ccccc2)(c2ccccc2)c2ccccc2)cc1 (stereo unspecified) | 29.3 µM | –
Fc1cccc(C=NC23CC4CC(CC(C4)C2)C3)c1 | > 100 µM | –
CSc1nc(NC2OC(CO)C(O)C(O)C2O)c(N)c(=O)n1C (stereo unspecified) | > 100 µM | –
COC(=O)[C@H]1[C@H](OC(=O)[C@@H](OC)c2ccccc2)ON2CC[C@@H](OC(=O)c3ccccc3)[C@H]12 | > 100 µM | –
NCCCNCCCNc1nc2ccccc2c2[nH]c3ccccc3c12 | 2.64 µM | 0.323 µM
COc1cc(-c2c(C(C)=O)c(-c3ccccc3)n(C3OC(COC(C)=O)C(OC(C)=O)C(OC(C)=O)C3OC(C)=O)c(=S)c2C#N)ccc1O (stereo unspecified) | > 100 µM | –
Nc1cc2c3c(cccc3c1)C(=O)N(CCN1CCN(CCN3C(=O)c4cccc5cc(N)cc(c45)C3=O)CC1)C2=O | > 100 µM | –
CCC/C(Cl)=N/OC(=O)Nc1cccc(F)c1 | 32.2 µM | –
CCN(CC)CCSc1nc2c([N+](=O)[O-])cccc2[nH]1 | > 100 µM | –
CN(N=O)C(N)=NC(=O)c1ccccc1 | > 100 µM | –
CC1OC(OC2C(OC3CCC4(C)C(CCC5(C)C4CC=C4C6CC(C)(C)CCC6(CO)C(O)CC45C)C3(C)C)OC(C(=O)O)C(OC3OC(COC4OC(CO)C(O)C(O)C4O)C(O)C(O)C3O)C2O)C(O)C(O)C1O (stereo unspecified) | 20.3 µM | 10.5 µM
C1=C(N2CCOCC2)/C(=C2\SC(=Nc3ccccc3)C(=Nc3ccccc3)N2c2ccccc2)CC1 | > 100 µM | –
COc1cc2nc(-c3ccc(Cl)cc3)cc(OCCCN3CCC(O)CC3)c2cc1OC | 18.4 µM | 3.22 µM
C=C1C(=O)C23C(O)C1CCC2C12CO[C@]3(O)[C@@H](O)C1C(C)(C)CCC2O (stereo partly specified) | 29.7 µM | –
COc1ccc2c(c1)C(=O)/C(=C/c1ccc(OCC(=O)c3ccc(Cl)cc3)cc1)O2 | > 100 µM | > 100 µM
